From publication PMC6919601, “Identification of Plasmodium dipeptidyl aminopeptidase allosteric inhibitors by high throughput screening” (PLoS ONE, 2019)
Out of some 110,000 compounds screened, about 230 (0.21%) showed an effect of 50% or more. Some of the results follow.

These molecules were tested against DPAP1 (Plasmodium falciparum, UniProt Q8IIJ9) (assay: primary screen, percent inhibition; read by cleavage of a fluorogenic dipeptide substrate; higher = more effect of the substance).
Design: species or system P. falciparum D10 trophozoite lysates; single well
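Also: 30 min substrate incubation versus DMSO and 10 µM JCP410 controls.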

Chain of DPAP1 (Q8IIJ9 whole entry, looked up): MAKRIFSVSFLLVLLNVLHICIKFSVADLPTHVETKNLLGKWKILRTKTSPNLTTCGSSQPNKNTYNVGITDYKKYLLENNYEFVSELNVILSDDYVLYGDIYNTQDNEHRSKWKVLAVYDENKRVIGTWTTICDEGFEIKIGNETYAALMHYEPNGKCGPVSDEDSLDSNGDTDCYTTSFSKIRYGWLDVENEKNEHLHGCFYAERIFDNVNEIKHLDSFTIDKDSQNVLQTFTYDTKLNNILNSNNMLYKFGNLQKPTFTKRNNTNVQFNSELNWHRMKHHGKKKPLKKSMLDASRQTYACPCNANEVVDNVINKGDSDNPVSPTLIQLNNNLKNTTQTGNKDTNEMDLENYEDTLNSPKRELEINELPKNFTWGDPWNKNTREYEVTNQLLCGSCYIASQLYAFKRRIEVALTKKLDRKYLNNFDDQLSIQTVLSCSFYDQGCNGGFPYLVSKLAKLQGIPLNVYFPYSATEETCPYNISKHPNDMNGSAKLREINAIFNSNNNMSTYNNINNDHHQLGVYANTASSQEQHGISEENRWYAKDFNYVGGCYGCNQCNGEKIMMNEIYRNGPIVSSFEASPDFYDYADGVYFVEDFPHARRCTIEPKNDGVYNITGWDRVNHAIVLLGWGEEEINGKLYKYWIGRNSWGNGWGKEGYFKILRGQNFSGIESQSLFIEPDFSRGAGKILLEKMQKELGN

SMILES | % Inhibition @ 10 uM
CN1CCN(C2Cc3ccccc3Sc3cc(F)ccc32)CC1 (stereo not drawn) | 2.84%
Cc1cc2ccccc2c(=O)n1CC(=O)NCc1ccc(F)cc1 | 10.9%
CC1=C(C(=O)Nc2ccccn2)C(c2ccc(Cl)cc2Cl)C2=C(O)CC(C)(C)CC2=N1 (stereo not drawn) | -2.16%
CNc1ncnc2c1N=C1CC(C)(C)CC(NC3CCCCC3)=C1S2 | 8.36%
Cc1ccnc(NC(=O)Nc2sc3nc4n(c(=O)c3c2C)CCC(C)CC4)c1 (stereo not drawn) | -1.7%
NS(=O)(=O)c1ccc(NC(=O)CNS(=O)(=O)c2ccc(F)cc2)cc1 | 0.512%
COc1ccc(C2CC(c3ccc(Br)cc3)=NN2C(C)=O)cc1 (stereo not drawn) | 1.67%
O=S(=O)(c1ccc(Cl)cc1)c1nnn2c1nc(NCC1CCCO1)c1sccc12 (stereo not drawn) | -1.68%
Cc1ccc(NC(=O)COc2ccc(Cl)cc2Cl)cc1O | -3.65%
Cc1ccc(C2CC(C(F)(F)F)n3nc(C(=O)N(C)Cc4c(C)nn(C)c4C)cc3N2)cc1 (stereo not drawn) | 2.32%
COc1cc2c(cc1OC)CC(=O)N(C)CC2 | 4.98%
CCOC(=O)c1c(N)sc2c(OC)c(Br)ccc12 | -8.11%
CCc1ccccc1NC(=O)CN(c1ccccc1)S(=O)(=O)c1ccccc1 | -9.26%
COc1cccc(C2C(C#N)=C(N)Oc3[nH]nc(-c4cc(C)sc4C)c32)c1O (stereo not drawn) | -0.968%
Cc1ccccc1S(=O)(=O)Cc1ccc(C(=O)N2CC(C)CC(C)C2)o1 (stereo not drawn) | -1.28%
Nn1c(S)nnc1-n1cccn1 | -0.169%
c1ccc2c(c1)c1ccccc1n2CCCN1CCCCC1 | -6.12%
Cc1nnc(N2CCC(C(=O)N3CCN(C)CC3)CC2)c2nn(-c3ccccc3)c(C)c12 | -1.41%
CC(C)(C)c1ccc(C(=O)N/C(=C/c2ccc(Br)cc2)C(=O)NCC(=O)O)cc1 | 4.3%
COc1cc(OC)c(OC)cc1CN1CCN(Cc2ccccc2F)CC1 | -1.55%
COc1ccc(N(C(C)C(=O)N2CCCCC2)S(C)(=O)=O)cc1 (stereo not drawn) | 1.15%

SMILES | % Inhibition @ 10 uM
Cc1ccc(N2CC(C(=O)NCCc3ccc(Cl)cc3)CC2=O)cc1C (stereo not drawn) | -4.82%
Cc1ccsc1-c1nc(CSCC(=O)N2CCN(Cc3ccccc3)CC2)c(C)o1 | -1.05%
O=C(O)CCCCCNC(=O)c1ccc(Cl)cc1 | 6.24%
Cc1ccc(S(=O)(=O)N(CC(=O)N2CCCCCC2)c2ccc(F)cc2)cc1 | -2.44%
CCOC(=O)c1c(C)nc(-c2ccccc2)nc1NC(=O)c1ccccc1 | -1.41%
CC1CCN(C(=O)Cn2ncc3c4ccccc4n(Cc4ccccc4F)c3c2=O)CC1 | 1.59%
O=C(CSc1cccc2c(SCC(=O)c3ccccc3)cccc12)c1ccccc1 | 4.82%
O=C(NC1CCCC1)C(c1ccccc1)N1CCCC1 (stereo not drawn) | -3.78%
Cc1cccc(-c2nc3s/c(=C\C4=Cc5ccccc5OC4)c(=O)n3n2)c1 | 2.24%
CCOC(=O)c1cnc2c(C)c(Cl)ccc2c1NCCCN1CCOCC1 | -5.15%
CCn1c(=O)c2sccc2n2c(CCCC(=O)NC3CCCCCC3)nnc12 | -1.04%
COc1ccc2c(c1)C1=NN(C(C)=O)C(c3ccc(F)cc3)C1CC2 (stereo not drawn) | -4.26%
COc1ccc(Cl)cc1NC(=O)CC1S/C(=N\c2ccc(F)cc2)N(C)C1=O (stereo not drawn) | -0.854%
Brc1ccc2ncnc(NCCCN3CCOCC3)c2c1 | -3.06%
CC1CCN(C(=O)CSc2nnc(-c3ccc(F)cc3)o2)CC1 | -2.8%
CCN(CC)C(=O)Cn1ncc2c(C)n(Cc3ccccc3F)c(C)c2c1=O | -0.447%
CCCNc1nc(O)nnc1C | -1.4%
O=C(Nc1cccc(C(=O)Nc2cccc(Cl)c2)c1)c1ccccc1 | 0.245%
C=CCN1CCc2cccc3c2[C@H]1Cc1ccc(O)c(O)c1-3 | 5.12%
CCN(CC)C(=O)CSc1nc2ccc(C)cc2cc1C#N | 2.36%
Cc1ccccc1C(=O)N1CCc2c([nH]c3ccccc23)C1 | -4.52%

SMILES | % Inhibition @ 10 uM
CCOc1ccccc1/C=C1\N=C(c2ccc(Br)cc2)OC1=O | 7.59%
CCCN(Cc1ccc(C(=O)OC)cc1)CC1CC1 | -5.31%
CC1CC(CC#N)(Cc2ccccc2)C(C)CN1C (stereo not drawn) | -2.63%
CCCNC(=O)C1Sc2nnc(-c3ccccc3)n2NC1c1ccc(F)cc1 (stereo not drawn) | 1.72%
Cc1ccc(C)c(CN2CCCN(Cc3cccc(C(F)(F)F)c3)S2(=O)=O)c1 | -3.61%
Cc1ccc(CCNS(=O)(=O)c2ccc3nc(O)ccc3c2)cc1 | -6.37%
O=C(NCCNC1=NS(=O)(=O)c2ccccc21)c1ccc(S(=O)(=O)N2CCCCC2)cc1 | -7.7%
O=C(NCC12CC3CC(CC(C3)C1)C2)c1nn2cccnc2c1Cl | 15.8%
O=C1NC(=O)C(=Cc2ccc(Sc3cccc4ccccc34)o2)C(=O)N1 | 2.14%
O=C(NCc1ccccc1)c1cc2n(n1)C(C(F)(F)F)CC(c1ccc(Cl)cc1)N2 (stereo not drawn) | 2.63%
O=C(Cn1nnc2sc3c(c2c1=O)CCCC3)c1ccc(Cl)cc1 | 2.41%
Cc1onc(-c2ccccc2)c1C(=O)NCCN1CCOCC1 | 4.84%
O=C(O)c1ccccc1C(=O)N1CCN(c2ccc([N+](=O)[O-])cc2)CC1 | 3.61%
CCOC(=O)C1CCCCN1Cc1ccccc1F (stereo not drawn) | 1.55%
COc1ccc(C(C)C)cc1S(=O)(=O)N1CCOCC1 | 2.79%
CCCCNC(=O)CCc1nnc2n(Cc3ccc(Cl)cc3)c(=O)c3ccccc3n12 | -2.42%
O=C(Nc1ccc(S(=O)(=O)NC2CCCCC2)cc1)c1ccc([N+](=O)[O-])cc1 | 2.33%
Cc1cccnc1NC(=O)C1CC=CCC1C(=O)O (stereo not drawn) | 4.35%
CC(NC(=O)C1c2ccccc2Oc2ccccc21)c1ccccc1 (stereo not drawn) | -3.25%
C=CC/N=C(\CCCC/C(=N\CC=C)C1=C(O)CC(C)(C)CC1=O)C1=C(O)CC(C)(C)CC1=O | 0.275%
CCN1C2C3N(CC)C4C1N(C(C)=O)C(C(N2C(C)=O)N3C(C)=O)N4C(C)=O | 13.6%
